# From paper PMC4336329 (PLoS ONE, 2015)
# The campaign covered roughly 310,000 compounds. About 2,200 (0.71%) showed an effect of 50% or more. The effect is printed as a negative number. The list shows a part of the results.
# Target: human ether-à-go-go-related gene (hERG) potassium channel (human, UniProt Q12809)
# Assay: primary screen, population patch clamp on CHO cells stably expressing hERG
# human ether-à-go-go-related gene (hERG) potassium channel, sequence (Q12809 whole entry, looked up): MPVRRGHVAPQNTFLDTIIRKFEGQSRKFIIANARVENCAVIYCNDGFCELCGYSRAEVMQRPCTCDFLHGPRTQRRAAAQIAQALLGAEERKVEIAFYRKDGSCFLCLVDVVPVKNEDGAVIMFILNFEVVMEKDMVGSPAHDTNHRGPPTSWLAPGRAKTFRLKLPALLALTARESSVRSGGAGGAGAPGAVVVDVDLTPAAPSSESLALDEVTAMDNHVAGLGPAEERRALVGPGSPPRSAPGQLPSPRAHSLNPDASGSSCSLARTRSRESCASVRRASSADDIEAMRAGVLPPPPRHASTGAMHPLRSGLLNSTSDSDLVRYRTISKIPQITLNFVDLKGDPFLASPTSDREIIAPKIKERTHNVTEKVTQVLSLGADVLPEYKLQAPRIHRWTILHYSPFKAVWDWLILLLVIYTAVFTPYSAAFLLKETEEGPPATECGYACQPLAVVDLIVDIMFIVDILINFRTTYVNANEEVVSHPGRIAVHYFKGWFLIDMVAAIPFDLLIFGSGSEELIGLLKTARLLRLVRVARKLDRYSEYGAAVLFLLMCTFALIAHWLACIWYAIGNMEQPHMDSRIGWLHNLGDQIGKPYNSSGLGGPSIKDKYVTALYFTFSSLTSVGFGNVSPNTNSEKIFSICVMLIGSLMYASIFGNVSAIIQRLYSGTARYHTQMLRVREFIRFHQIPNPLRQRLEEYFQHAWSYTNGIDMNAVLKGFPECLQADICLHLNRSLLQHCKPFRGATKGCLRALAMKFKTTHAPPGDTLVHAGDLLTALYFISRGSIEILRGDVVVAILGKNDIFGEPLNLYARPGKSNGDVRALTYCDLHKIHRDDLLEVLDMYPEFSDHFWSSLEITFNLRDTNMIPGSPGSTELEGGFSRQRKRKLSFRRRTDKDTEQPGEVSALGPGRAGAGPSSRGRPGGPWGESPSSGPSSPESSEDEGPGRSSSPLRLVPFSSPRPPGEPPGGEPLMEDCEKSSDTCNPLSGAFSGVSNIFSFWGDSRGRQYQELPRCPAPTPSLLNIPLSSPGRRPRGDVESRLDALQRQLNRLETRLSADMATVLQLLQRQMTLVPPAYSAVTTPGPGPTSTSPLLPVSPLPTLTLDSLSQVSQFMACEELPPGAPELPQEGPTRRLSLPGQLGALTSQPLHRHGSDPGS
row,Compound,"hERG current change (%, negative = inhibition) at 1uM [%]"
1,COc1ccc(Cl)cc1C(=O)NNC(=O)c1n[nH]c2ccccc12,9.2
2,CCN(CC)c1nc2ccccc2[nH]1.Cl,6.44
3,CCCSc1nnc2[nH]c(=O)cc(N)n12,9.95
4,COCc1ccc(C(=O)OC(C)C(=O)Nc2c(C)n(C)n(-c3ccccc3)c2=O)cc1 (centres unmarked),6.77
5,Clc1cccc(CSc2nccn2-c2ccccc2)c1,0.457
6,COc1ccc(-c2noc(CN(C)C(=O)c3ccoc3C)n2)cc1OC,11.2
7,CCN1C(=O)/C(=C\N(C)C)S/C1=N\S(=O)(=O)c1ccccc1,4.97
8,Cc1cc(C)n(C(=O)CN2C(=O)c3ccccc3C2=O)n1,11.5
9,CC(C)C(=O)O/N=C1\CCS(=O)(=O)c2sccc21,11.6
10,COc1ccc2c(c1)C(NC(C)=O)C(=O)N2C (centres unmarked),-2.92
11,CCO/C(=C/c1sc2ccc(OC)cc2[n+]1CCCS(=O)(=O)[O-])CC,9.05
12,Cn1c(Br)nc2c1c(=O)n(CC(O)COc1ccccc1)c(=O)n2C (centres unmarked),9.46
13,CCN(C(=O)Cn1c(=O)oc2ccccc21)C1CCS(=O)(=O)C1 (centres unmarked),-1.04
14,CN1CC(=O)N2Cc3[nH]c4ccccc4c3C[C@H]2C1=O,14.8
15,COc1ccc(NC(=O)CN2C(=O)c3cccc4cccc2c34)cc1OC,21.1
16,CCOC(=O)CCC(NC(=O)CCCCCCCC(=O)NC(CCC(=O)OCC)C(=O)OCC)C(=O)OCC (centres unmarked),4.36
17,CCOC(=O)C1CCCN(C(=O)CCc2ccccc2)C1 (centres unmarked),-6.13
18,Cc1ccc(C(=O)NC(=S)NNC(=O)c2cccc([N+](=O)[O-])c2)cc1,23.1
19,CCOC(=O)N1CCN(C(=O)CSc2nnc(-c3ccc(C(C)(C)C)cc3)o2)CC1,11.5
20,CS(=O)(=O)N(CC(=O)N1CCc2ccccc2C1)c1ccccc1Br,11.7

row,Compound,"hERG current change (%, negative = inhibition) at 1uM [%]"
1,CC(CCc1ccccc1)NC(=O)COC(=O)C1=COCCO1 (centres unmarked),12.9
2,COc1cc2ccccc2cc1C(=O)Nc1ccc(N2CCOCC2)cc1,14.3
3,CN(C)c1ccc(/C=N/N(Cc2ccccc2)c2ccccc2)cc1,11.4
4,COc1ccc(CNC(=S)Nc2ccc(S(N)(=O)=O)cc2)cc1,4.13
5,COc1ccc(S(=O)(=O)N2CCSCC2)cc1,7.1
6,CN(C)C(=O)Cn1cnc2c(cnn2-c2ccccc2Cl)c1=O,-4.2
7,CSc1cc(-c2ccccc2)n(C)c(=O)c1C#N,16.5
8,CCN(Cc1ccncc1)C(=O)c1cc(COc2c(C)cccc2C)on1,-63.1
9,Cc1nc(/N=C(\N)N(C)C)[nH]c(=O)c1C,5.78
10,COc1ccccc1CN(C)C(=O)CN1CCN(CC(=O)Nc2ccccc2Cl)CC1,-4.92
11,CCN(CC)CCC(c1ccc(N(C)C)cc1)c1c(OC)cc(OC)c2ccc(=O)oc12 (centres unmarked),4.07
12,Cn1ncc(Cl)c1C(=O)N1CCN(c2ccc(Cl)c(Cl)c2)CC1,8.62
13,O=C1c2ccccc2C(=O)N1CSc1nnc(Nc2ccccc2)s1,11.6
14,CC(=O)Nc1cccc(NC(=O)C(F)(F)F)c1,18.2
15,O=S(=O)(c1ccc(F)c(F)c1)N1CCN(Cc2ccc3c(c2)OCO3)CC1,-9.04
16,CC(C)N(C(=O)NC(=O)Nc1ccc(S(=O)(=O)N2CCCC2)cc1)S(C)(=O)=O,0.333
17,CCOc1ccc(C(=O)Nc2ccc(N3CCCC3)cc2)cc1,13.1
18,CC1(C)Oc2ccc3ccc(=O)oc3c2-c2cn[nH]c21,10.1
19,COc1ccc(C)cc1S(=O)(=O)N1CCc2ccccc2C1,8.62
20,CN(C)CCn1c2ccccc2c2nc3ccc([N+](=O)[O-])cc3cc21,10.8

row,Compound,"hERG current change (%, negative = inhibition) at 1uM [%]"
1,O=S(=O)(c1ccc(N2CCOCC2)cc1)N1CCOCC1,6.18
2,Cc1cc(Oc2ccccc2)nc(SCC(N)=O)n1,8.03
3,CC1CCN(C(=O)c2[nH]cnc2C(=O)NCc2ccccc2)CC1,10.8
4,COc1cc(/C=C2\CCCc3c2nc2ccccc2c3C(=O)O)cc([N+](=O)[O-])c1O,17.4
5,COc1cccc(C(=O)Nc2ccc(NC(=O)C3CC3)nc2)c1,12.9
6,O=C(Cc1cccs1)NCCc1ccc(Cl)cc1,-17.5
7,CC(=O)NC(CC(=O)O)C(=O)O (centres unmarked),19.4
8,N#Cc1c(-c2ccccc2)nc(SCC(=O)Nc2ccccc2F)[nH]c1=O,14.7
9,O=C(CSCc1ccccc1)Nc1ccc(F)c(F)c1,13.6
10,COc1ccccc1CCNC(=O)CSc1nc(=O)[nH]c2c1CCC2,-18.3
11,COc1cc(/C=C(\C#N)c2nc(-c3cc4ccccc4oc3=O)cs2)ccc1O,8.7
12,CN1C2CCC1C(COC(=O)c1ccccc1)C(O)C2 (centres unmarked),8.16
13,COc1ccc([N+](=O)[O-])cc1NS(=O)(=O)c1cc(C(=O)N2CCN(C)CC2)ccc1OC,4.81
14,COc1cc(NC(=O)C2=C(C)OCCS2)c(Cl)cc1C(=O)NCCN1CCN(C)CC1,-11.6
15,CC(CNC(=O)c1ccc(OC2CCN(Cc3ccccn3)CC2)cc1)c1ccccc1 (centres unmarked),-38.8
16,COc1ccc(C(=O)N2c3ccccc3C=CC2C#N)cc1 (centres unmarked),5.61
17,COc1cc(Cl)c(S(=O)(=O)NCCN2CCOCC2)cc1Cl,11.8
18,Cc1ccc(C(=O)CNc2nc3c(c(=O)[nH]c(=O)n3C)n2Cc2ccccc2)cc1,7.44
19,CCOC(=O)c1ccccc1NS(=O)(=O)c1ccccc1,-0.965
